The values below come from the BET-seq Pho4 binding data (Le et al. 2018).

The list shows a part of the results. Values were computed here from the reads of four pooled replicates and scatter widely.

The target of this test is T1, Pho4 (S. cerevisiae) (UniProt P07270).
T1 sequence: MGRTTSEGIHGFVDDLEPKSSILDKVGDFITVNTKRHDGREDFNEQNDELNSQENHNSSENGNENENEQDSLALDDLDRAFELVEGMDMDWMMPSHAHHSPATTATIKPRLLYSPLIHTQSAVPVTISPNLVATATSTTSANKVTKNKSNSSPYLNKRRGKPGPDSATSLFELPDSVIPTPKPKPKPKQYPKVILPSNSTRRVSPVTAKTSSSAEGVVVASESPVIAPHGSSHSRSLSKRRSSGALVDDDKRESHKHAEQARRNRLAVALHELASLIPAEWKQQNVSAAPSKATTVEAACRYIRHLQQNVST
The test can be described thus: relative binding free energy (BET-seq); higher = weaker binding. Particulars: reference: library average.
For TGTAGCACGTGAGGCG, the “relative binding free energy” value turned out to be 0.16 kcal/mol. Turning to AAAATCACGTGGTGGC, the “relative binding free energy” value is 0.2 kcal/mol. Regarding TTATTCACGTGTACTT, the “relative binding free energy” value was determined as 0.07 kcal/mol. Turning to ATTGGCACGTGGGTTG, the “relative binding free energy” value was -0.23 kcal/mol. As to GTGTTCACGTGCTACG, the “relative binding free energy” value turned out to be 0.24 kcal/mol. On to GATGGCACGTGTATTG, for which the “relative binding free energy” value is -0.2 kcal/mol. Consider AGGGGCACGTGCTTAT, for which the “relative binding free energy” value is -0.2 kcal/mol.

Regarding AGGGGCACGTGTAAGG, the “relative binding free energy” value was -0.02 kcal/mol. As for AGTTTCACGTGGGCAA, the “relative binding free energy” value was found to be 0.13 kcal/mol. Take TTGATCACGTGGGCTG: the “relative binding free energy” value was 0.07 kcal/mol. Regarding GGATGCACGTGTGCTT, the “relative binding free energy” value was -0.05 kcal/mol. As for AGGGACACGTGGTAGT, the figure is -0.01 kcal/mol; as for ATGGGCACGTGAGTTC, 0.2 kcal/mol; as for TTTCTCACGTGAGAGT, 0.41 kcal/mol.

As for GGTGACACGTGGAATA, the “relative binding free energy” value is 0.08 kcal/mol. For CTGTTCACGTGAGGTG the value was 0.27 kcal/mol; for GCGTGCACGTGAGGGC, 0.26 kcal/mol. For GGGTGCACGTGACAAG, the “relative binding free energy” value amounted to 0.14 kcal/mol.

Consider TTTTTCACGTGATTTA, for which the “relative binding free energy” value stood at 0.26 kcal/mol.

As for AGGGCCACGTGTGTGG, the “relative binding free energy” value was -0.09 kcal/mol. In the case of ATTAACACGTGTTTAT, the “relative binding free energy” value was -0.05 kcal/mol. Consider ACTAGCACGTGTGGGC, for which the “relative binding free energy” value came to 0.11 kcal/mol. Consider GTGCTCACGTGGAGGC, for which the “relative binding free energy” value came out at 0.13 kcal/mol.

Take GCGGGCACGTGTTGGG: the “relative binding free energy” value is -0.08 kcal/mol. With AGGGGCACGTGTTCGA, the “relative binding free energy” value is -0.2 kcal/mol. For GATGGCACGTGCGTTT, the “relative binding free energy” value is -0.01 kcal/mol. As for TTTATCACGTGGCCTG, the “relative binding free energy” value was found to be 0.18 kcal/mol. As for ACATACACGTGTTGGT, the “relative binding free energy” value is -0.03 kcal/mol. Consider GAGGGCACGTGGGTCT, for which the “relative binding free energy” value was -0.19 kcal/mol. For TGTCGCACGTGGTTTC, the “relative binding free energy” value was 0.01 kcal/mol. As to TTATGCACGTGTTTCT, the “relative binding free energy” value stood at 0.04 kcal/mol. As for TGTTTCACGTGGGTGC, the figure is 0.18 kcal/mol.

For the sequence GGAAACACGTGTATTG, the “relative binding free energy” value was 0.12 kcal/mol. As to TCGCTCACGTGTTGGG, the “relative binding free energy” value came to 0.26 kcal/mol. Turning to TACTTCACGTGGTGTA, the “relative binding free energy” value was 0.09 kcal/mol.

For TGGTTCACGTGAGGCA, the “relative binding free energy” value stood at 0.23 kcal/mol. As for CTTGGCACGTGAATTT, the figure is 0.12 kcal/mol; as for GGTATCACGTGTGGGA, 0.3 kcal/mol. In the case of GTAAGCACGTGAGGTA, the “relative binding free energy” value amounted to 0.16 kcal/mol. On to TTCTGCACGTGTGGGC, for which the “relative binding free energy” value was 0.11 kcal/mol. Regarding TTGATCACGTGTCTGT, the “relative binding free energy” value is -0.08 kcal/mol. Regarding TGAGTCACGTGGTCAT, the “relative binding free energy” value was -0.05 kcal/mol.

For the sequence GTATGCACGTGCTGGA, the “relative binding free energy” value came to 0.01 kcal/mol.

For the sequence CTTGGCACGTGTTGTA, the “relative binding free energy” value was -0.02 kcal/mol.

For the sequence TTAGTCACGTGCTTTT, the “relative binding free energy” value was -0.01 kcal/mol. For the sequence TTAGTCACGTGGCGGG, the “relative binding free energy” value was 0.1 kcal/mol.

GTTATCACGTGGTGGT: the “relative binding free energy” value amounted to 0.15 kcal/mol. On to TGTGCCACGTGTAGTT, for which the “relative binding free energy” value was -0.05 kcal/mol.

On to GGTTACACGTGGTATA, for which the “relative binding free energy” value was found to be 0.04 kcal/mol.

For TAGGGCACGTGGCGGT, the “relative binding free energy” value is -0.12 kcal/mol. Regarding CGGGTCACGTGGGATA, the “relative binding free energy” value was determined as 0.02 kcal/mol. As to TAGAGCACGTGGAATG, the “relative binding free energy” value was -0.09 kcal/mol. GTTAGCACGTGGTAGC: the “relative binding free energy” value was -0.09 kcal/mol. Regarding GGTAGCACGTGTAGTG, the “relative binding free energy” value was determined as 0.07 kcal/mol. As for TACCTCACGTGGGGAT, the figure is 0.23 kcal/mol. On to CTTGACACGTGTGTTA, for which the “relative binding free energy” value was 0.01 kcal/mol. For the sequence TGTAACACGTGATGGC, the “relative binding free energy” value was found to be 0.16 kcal/mol. For GGCAGCACGTGCAGGG, the “relative binding free energy” value is -0.1 kcal/mol. For TAGGACACGTGTGTTG the value was 0.01 kcal/mol; for TAATCCACGTGTGTTT, 0.08 kcal/mol; for GGCAACACGTGGTGTA, -0.08 kcal/mol. For ATTACCACGTGGTTAT, the “relative binding free energy” value is -0.1 kcal/mol. For GGCGTCACGTGGTTTT the value was 0.19 kcal/mol; for TCTTGCACGTGGTATA, -0.19 kcal/mol.

For the sequence GAAGTCACGTGTAGGC, the “relative binding free energy” value turned out to be 0.26 kcal/mol. For the sequence ATTGGCACGTGTTCGG, the “relative binding free energy” value was -0.19 kcal/mol. As for CTAGGCACGTGAGTGA, the “relative binding free energy” value was determined as 0.08 kcal/mol. As to GGTAGCACGTGTCGCG, the “relative binding free energy” value was determined as 0 kcal/mol. In the case of TGAAGCACGTGTGTAC, the “relative binding free energy” value was 0.08 kcal/mol. AGCGGCACGTGTTTTT: the “relative binding free energy” value was 0.13 kcal/mol.

Turning to ACTTACACGTGGCGGT, the “relative binding free energy” value turned out to be 0.18 kcal/mol.

As to AGTGGCACGTGATTCA, the “relative binding free energy” value is -0.01 kcal/mol. As for TAGTTCACGTGGAGTT, the “relative binding free energy” value was 0.37 kcal/mol. GGTGCCACGTGGGGAA: the “relative binding free energy” value was -0.11 kcal/mol.

For the sequence TGGAGCACGTGGGTTC, the “relative binding free energy” value was -0.08 kcal/mol. In the case of TAGTGCACGTGAGATA, the “relative binding free energy” value came out at 0.18 kcal/mol. As for TTCCTCACGTGTAGTT, the figure is 0.27 kcal/mol; as for AGGTTCACGTGTAACG, 0.25 kcal/mol. As for CGGGTCACGTGATATG, the “relative binding free energy” value stood at 0.16 kcal/mol. Take ATGAGCACGTGATAGA: the “relative binding free energy” value was determined as 0.09 kcal/mol. As for GGGGACACGTGCGTGC, the figure is -0.13 kcal/mol; as for AGACGCACGTGGGCGG, -0.27 kcal/mol; as for TGCGACACGTGGTGTA, -0.07 kcal/mol. Regarding CTTTCCACGTGGTGTG, the “relative binding free energy” value is -0.01 kcal/mol. CAAGGCACGTGATGGG: the “relative binding free energy” value is -0.01 kcal/mol. As for GTTACCACGTGGTAGT, the figure is -0.11 kcal/mol; as for GGATGCACGTGCGATG, -0.1 kcal/mol. As for ATGGTCACGTGGGCTA, the “relative binding free energy” value was -0.12 kcal/mol. As to ATTATCACGTGGTGAC, the “relative binding free energy” value worked out at 0.19 kcal/mol. With TTTGTCACGTGGACGT, the “relative binding free energy” value stood at 0.2 kcal/mol. As to TAGGTCACGTGGAAGG, the “relative binding free energy” value was found to be 0.13 kcal/mol. Turning to AGAGTCACGTGTTACT, the “relative binding free energy” value turned out to be 0.24 kcal/mol. Turning to TGTGGCACGTGGATTT, the “relative binding free energy” value was 0.08 kcal/mol.

With GGGAACACGTGGGGCC, the “relative binding free energy” value was -0.01 kcal/mol.

As for GGTCGCACGTGGTCTG, the “relative binding free energy” value is -0.16 kcal/mol.

Take GGTCACACGTGTGTAG: the “relative binding free energy” value is 0.03 kcal/mol. Consider TCTTGCACGTGTTAGA, for which the “relative binding free energy” value is 0.08 kcal/mol.

Turning to GTTTTCACGTGAAATT, the “relative binding free energy” value came to 0.23 kcal/mol.

Consider AGTGGCACGTGGGCTC, for which the “relative binding free energy” value was -0.21 kcal/mol.

As to GTACTCACGTGCTGGT, the “relative binding free energy” value is 0.19 kcal/mol. CGTAGCACGTGGTGGA: the “relative binding free energy” value is -0.03 kcal/mol. In the case of TAATTCACGTGAGCTG, the “relative binding free energy” value was determined as 0.33 kcal/mol. As for TGACGCACGTGAAGGG, the “relative binding free energy” value is 0.26 kcal/mol.

With TATCGCACGTGTTTGG, the “relative binding free energy” value is -0.06 kcal/mol. For TGTGCCACGTGTGTCA, the “relative binding free energy” value is -0.03 kcal/mol. GGAATCACGTGTTTTT: the “relative binding free energy” value worked out at 0.3 kcal/mol. For the sequence GAAGTCACGTGGGTCT, the “relative binding free energy” value is -0.02 kcal/mol.

On to CTAAGCACGTGGTTTG, for which the “relative binding free energy” value was -0.16 kcal/mol. Regarding GTATGCACGTGGACGT, the “relative binding free energy” value came out at 0.03 kcal/mol. Take GGTCCCACGTGAAGGG: the “relative binding free energy” value worked out at 0.24 kcal/mol.

Regarding TCGTTCACGTGGGGTC, the “relative binding free energy” value was determined as 0.12 kcal/mol. On to GATGGCACGTGAGAGT, for which the “relative binding free energy” value amounted to 0.28 kcal/mol.

On to GGCTTCACGTGTTATT, for which the “relative binding free energy” value worked out at 0.32 kcal/mol. AGTAACACGTGTTGCG: the “relative binding free energy” value was determined as 0.04 kcal/mol. As to GAGATCACGTGGTGTC, the “relative binding free energy” value was found to be 0.18 kcal/mol.

Regarding GGTCTCACGTGCTGGG, the “relative binding free energy” value is 0.29 kcal/mol.

In the case of TGATACACGTGGATTA, the “relative binding free energy” value came to 0.17 kcal/mol. Take ATTAACACGTGCGGTG: the “relative binding free energy” value is -0.01 kcal/mol. In the case of TTTTTCACGTGTTGGT, the “relative binding free energy” value came out at 0.42 kcal/mol. For TCGTCCACGTGGGGTG, the “relative binding free energy” value is -0.21 kcal/mol. With GTAGCCACGTGGGGAT, the “relative binding free energy” value is -0.23 kcal/mol. Turning to GTTTGCACGTGGGTGT, the “relative binding free energy” value was -0.05 kcal/mol.

Turning to CTTATCACGTGAGAGT, the “relative binding free energy” value worked out at 0.24 kcal/mol. As for GTACTCACGTGTAGGT, the “relative binding free energy” value was 0.11 kcal/mol.

Turning to GTGGGCACGTGGATGG, the “relative binding free energy” value is -0.01 kcal/mol. For the sequence TATTTCACGTGTTGGA, the “relative binding free energy” value was determined as 0.27 kcal/mol. With GAGGCCACGTGTGGGC, the “relative binding free energy” value was 0.14 kcal/mol. In the case of TCTTGCACGTGGCTAT, the “relative binding free energy” value came out at 0.03 kcal/mol. As for GGAGCCACGTGTATGG, the “relative binding free energy” value turned out to be 0.11 kcal/mol. Turning to GGGACCACGTGTGGGG, the “relative binding free energy” value was -0.01 kcal/mol. As for CGTTACACGTGGAGGG, the figure is 0.03 kcal/mol. Take TGGTACACGTGCGGGG: the “relative binding free energy” value was 0.1 kcal/mol. For TGAAGCACGTGAGTGA, the “relative binding free energy” value is 0.09 kcal/mol. In the case of AAGGGCACGTGGTAAG, the “relative binding free energy” value is -0.1 kcal/mol. For the sequence TTTAGCACGTGTCTGG, the “relative binding free energy” value is -0.03 kcal/mol.

Regarding ACATTCACGTGAAGGG, the “relative binding free energy” value stood at 0.51 kcal/mol.

Consider ATGTTCACGTGTTTAG, for which the “relative binding free energy” value was found to be 0.25 kcal/mol. For CTGTTCACGTGGTAAG the value was 0.01 kcal/mol; for TTGGTCACGTGGGTAC, -0.18 kcal/mol; for TTTATCACGTGGATAG, 0.13 kcal/mol. Take ATGGTCACGTGCGGAA: the “relative binding free energy” value was found to be 0.14 kcal/mol.

As to GGTGACACGTGTGAGC, the “relative binding free energy” value turned out to be 0.15 kcal/mol.

On to TGCTACACGTGCTGGT, for which the “relative binding free energy” value was -0.02 kcal/mol. For GGAATCACGTGGACGG the value was 0.18 kcal/mol; for TCAGACACGTGGTGTT, -0.04 kcal/mol; for GTAGGCACGTGCTTAT, -0.04 kcal/mol.
